Publication PMC4336329 (PLoS ONE, 2015)
Among all 310,000 compounds or so, about 2,200 (0.71%) showed an effect of 50% or more. The effect is printed as a negative number. The list shows a part of the results.

Target: human ether-à-go-go-related gene (hERG) potassium channel (human, UniProt Q12809)
Assay: primary screen, population patch clamp on CHO cells stably expressing hERG

Chain of human ether-à-go-go-related gene (hERG) potassium channel (Q12809 whole entry, looked up): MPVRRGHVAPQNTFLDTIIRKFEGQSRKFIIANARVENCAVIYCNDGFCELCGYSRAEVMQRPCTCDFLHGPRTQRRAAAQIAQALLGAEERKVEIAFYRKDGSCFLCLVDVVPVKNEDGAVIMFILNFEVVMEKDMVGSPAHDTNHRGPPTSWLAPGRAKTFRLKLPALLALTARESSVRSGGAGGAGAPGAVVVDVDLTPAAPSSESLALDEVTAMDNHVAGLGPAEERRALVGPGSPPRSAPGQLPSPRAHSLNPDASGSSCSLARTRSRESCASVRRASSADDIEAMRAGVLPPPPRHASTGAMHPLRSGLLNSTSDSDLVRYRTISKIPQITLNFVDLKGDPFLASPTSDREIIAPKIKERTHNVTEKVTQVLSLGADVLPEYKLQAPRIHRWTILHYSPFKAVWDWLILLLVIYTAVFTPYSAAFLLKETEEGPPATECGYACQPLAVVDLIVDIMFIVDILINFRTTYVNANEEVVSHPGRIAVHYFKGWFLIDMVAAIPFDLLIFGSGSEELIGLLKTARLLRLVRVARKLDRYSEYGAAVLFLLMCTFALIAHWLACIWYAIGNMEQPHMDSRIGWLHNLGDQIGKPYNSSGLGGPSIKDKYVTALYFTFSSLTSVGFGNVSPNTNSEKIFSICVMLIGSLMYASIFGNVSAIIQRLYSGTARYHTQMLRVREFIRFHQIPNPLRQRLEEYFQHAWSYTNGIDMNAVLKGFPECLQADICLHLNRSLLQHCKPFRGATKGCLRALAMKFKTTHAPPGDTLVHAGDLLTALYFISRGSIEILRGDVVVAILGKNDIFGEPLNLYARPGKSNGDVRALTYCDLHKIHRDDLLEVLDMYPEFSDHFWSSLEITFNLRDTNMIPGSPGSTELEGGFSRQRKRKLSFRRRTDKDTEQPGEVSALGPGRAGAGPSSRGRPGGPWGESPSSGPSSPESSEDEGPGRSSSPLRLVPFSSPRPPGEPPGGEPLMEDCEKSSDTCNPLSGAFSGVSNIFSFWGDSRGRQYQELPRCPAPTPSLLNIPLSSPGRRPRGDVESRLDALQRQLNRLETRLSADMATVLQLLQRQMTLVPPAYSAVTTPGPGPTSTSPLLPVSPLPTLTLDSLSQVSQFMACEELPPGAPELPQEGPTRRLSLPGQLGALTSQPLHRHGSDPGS

Row | SMILES | hERG current change (%, negative = inhibition) at 1uM
1 | C/C(=C\c1cccs1)C(=O)c1c(C)cc(C)[nH]c1=O | 10.3%
2 | Cc1ccc(CNC(=O)Cn2ccc3cc(S(=O)(=O)N4CCCC4)ccc32)o1 | 19.8%
3 | CCOc1cc(C(=O)NCc2ccc(C)cc2)ccc1OCC(=O)N1CCOCC1 | 8.35%
4 | CCOC(=O)c1c(NC(=O)/C=C/C(=O)O)sc(C)c1-c1ccc(C)c(C)c1 | 19.9%
5 | COc1ccc(CN(C)C(=O)c2ccc(Oc3ccccc3)cc2)cc1F | 9%
6 | COC(=O)c1cc(=O)n(Cc2ccc(F)cc2)c(=NCc2ccc(F)cc2)s1 | 14.1%
7 | Cc1ccc(N(CC(=O)NC2CCCCC2)C(=O)CNC(=O)c2ccco2)cc1C | 2.81%
8 | Cc1cccc(NC(=O)N(Cc2nc3ccccc3c(=O)[nH]2)C2CCCC2)c1 | 11.7%
9 | CC1(C)CC(=O)C(CC2=C(N)CC(C)(C)CC2=O)=C(N)C1 | 13.2%
10 | O=C(CSc1nnc(-c2ccccc2O)n1Cc1ccccc1)NNC(=O)c1ccccc1O | 7.15%
11 | CCCN=C1NC(=O)C(CC(=O)NCCc2ccccc2)S1 (stereo not shown) | 5.76%
12 | Cc1ccc2c(C(=O)CN3CCCCC3)c(C)[nH]c2c1 | 6.49%
13 | CCOC(=O)N1CCC(N2Cc3cccc(C(=O)NCc4ccc(C)cc4)c3C2=O)CC1 | -18.8%
14 | COc1ccc(N(CC(=O)Nc2c(C)n(C)n(-c3ccccc3)c2=O)S(=O)(=O)c2ccc(C)cc2)cc1 | -5.73%
15 | COC(=O)c1noc(C)c1-c1ccnn1C(=O)c1ccc(C)cc1 | 14.2%
16 | CCNC(=O)N1CCC(n2nccc2NC(=O)CCCc2ccccc2)CC1 | 16.7%
17 | O=C(Nc1cccc(F)c1)c1sc(Cl)nc1-c1ccccc1 | 5.72%
18 | COC(=O)c1ccc(CSc2nnc(CNC(=O)COc3ccc(Cl)cc3)o2)o1 | -8.23%
19 | COc1cc(/C=N/NS(=O)(=O)c2ccc3ccccc3c2)ccc1OCCN1CCOCC1 | 11.1%
20 | COc1ccc(C2=CC(=O)N(Nc3ccccc3)C2=O)cc1 | 29.7%
21 | Cc1c(NC(=O)c2ccc3c(c2)C(=O)N(Cc2ccco2)C3=O)cccc1C(=O)O | 9.81%
22 | CCOc1ccc(NC(=O)N2CC(C)OC(C)C2)cc1 (stereo not shown) | 14.3%

Row | SMILES | hERG current change (%, negative = inhibition) at 1uM
23 | N#Cc1ccccc1/C=C/C(=O)N1CCOCC1 | 16.7%
24 | CC(Oc1ccc2c(-c3ccccc3)cc(=O)oc2c1)C(=O)N[C@H](Cc1c[nH]c2ccccc12)C(=O)O (stereo partly shown) | 13.4%
25 | CCN(CC)c1nc(SCCOC(=O)Nc2ccccc2)nc(N(CC)CC)n1 | 8.13%
26 | O=C(CSc1ncn[nH]1)N/N=C/c1ccc(F)cc1 | 16.2%
27 | Cc1ccccc1C(=O)NC(=S)Nc1ncccn1 | 7.98%
28 | CC(NC(=O)c1ccc2ccccc2n1)c1ccc(S(N)(=O)=O)cc1 (stereo not shown) | 19%
29 | CC12CC3(C)CC(C)(C1)CC(C(=O)NCc1cccnc1)(C2)C3 | 8.6%
30 | Cc1ccc(CSc2nnc(-c3ccncc3)o2)c(C)c1 | 17.8%
31 | COc1cn(-c2ccccc2)nc1C(=O)Nc1ccc(C)cc1 | 10.3%
32 | O=C(OCc1cc2ccccc2[nH]c1=O)c1cccs1 | 22.2%
33 | CC(=O)NC(CCS(C)(=O)=O)C(=O)Nc1cccc(C)c1C (stereo not shown) | 2.45%
34 | O=c1c(Cc2ccccc2)c(O)ccn1C1CCCCCCC1 | 7.62%
35 | CCOc1ccc(Oc2ccccc2NC(=O)CSCC(=O)Nc2cc(C)on2)cc1 | 14.6%
36 | O=C(Nc1cccc(-c2nc3ccccc3s2)c1)c1cccs1 | 5.95%
37 | Nc1nc(NCCN2CCOCC2)nc(NCc2ccccc2)c1[N+](=O)[O-] | 2.83%
38 | Oc1c(N=Nc2ccc(F)cc2)ccc2ccccc12 | 10.7%
39 | CC(=O)N1N=C(c2ccc(Cl)cc2)CC1c1ccco1 (stereo not shown) | 11%
40 | Cn1cccc1CC(=O)N/N=C/c1cccc([N+](=O)[O-])c1 | 18.6%
41 | Cc1cc(F)ccc1NCc1ccccc1[N+](=O)[O-] | 12.7%
42 | Cn1ccnc1SCc1ccc([N+](=O)[O-])cc1 | 4.75%
43 | Cc1cc(C)nc(NN2C(=O)C=CC2=O)n1 | 11.6%
44 | CN1C(=O)CC(C(=O)Nc2ccc(F)cc2)SC1=Nc1ccc2c(c1)OCO2 (stereo not shown) | 15.2%

Row | SMILES | hERG current change (%, negative = inhibition) at 1uM
45 | Cc1csc2nc(COC(=O)CNC(=O)c3ccc(Cl)cc3)cc(=O)n12 | 1.84%
46 | CC(=O)c1c(C)[nH]c(C(=O)COC(=O)c2cccc(S(=O)(=O)N(C)c3ccccc3)c2)c1C | 11.6%
47 | S=c1[nH]nc(CSCc2ccccc2Cl)n1-c1ccccc1 | 8.2%
48 | O=C(O)[C@H](Cc1ccccc1)NC(=O)N1CCN(c2ccc(F)cc2)CC1 | -4.76%
49 | O=C(CCCn1c(SCC(=O)c2ccc(O)c(O)c2)nc2ccccc2c1=O)NCC1CCCO1 (stereo not shown) | 18.8%
50 | O=C1CCC(C(=O)OC(C(=O)Nc2cc(Cl)cc(Cl)c2)c2ccccc2)=NN1 (stereo not shown) | 12%
51 | COc1cccc(NC(=O)C2CCCCC2)c1 | 3%
52 | CCN(Cc1cc(=O)[nH]c2ccccc12)C(=O)c1ccc(C)cc1 | 7.89%
53 | Cc1cccc(NCc2ccc(O)c3ncccc23)c1 | 17%
54 | COc1ccc(-c2csc(NC(=O)CN3C(=O)NC4(CCCC4)C3=O)n2)c(OC)c1 | 4.95%
55 | O=C(O)c1ccccc1NC(=O)N1C[C@H]2C[C@@H](C1)c1cccc(=O)n1C2 | 7.17%
56 | Cc1ccc(S(=O)(=O)/C(C#N)=C/c2c(N3CCN(C)CC3)nc3ccccn3c2=O)cc1 | -28.2%
57 | O=C(NCCc1ccccc1)c1nnc(CS(=O)(=O)c2ccccc2)o1 | -9.24%
58 | O=C(Nc1ccc(CN2CCOCC2)cc1)c1ccc(Br)cc1 | 10.9%
59 | CCC(C)NC(=O)c1cnc2n(c1=O)CCS2 (stereo not shown) | 12.2%
60 | CCOC(=O)NC(=O)c1cn(Nc2ccccc2)c(=O)[nH]c1=O | 18.2%
61 | Cc1cccc(C)c1NC(=O)CNc1ccccc1 | 8.21%
62 | Cl.O=C(O)CNc1nc(-c2ccccc2)nc2ccccc12 | 25%
63 | CCOC(=O)CNNC(=O)Nc1ccc(Cl)c(Cl)c1 | 14.7%
64 | CN(C(=O)c1ccc2ccccc2c1)c1ccccn1 | 12.8%
65 | O=c1c2ccccc2nnn1CCN1CCOCC1 | 13.2%
66 | O=C(c1ccc(-c2ccccc2)cc1)N1CCN(c2ncccn2)CC1 | 9.41%

Row | SMILES | hERG current change (%, negative = inhibition) at 1uM
67 | O=C(Cc1cccs1)NCc1ccc(Cl)cc1Cl | 9.05%
68 | O=C(COC(=O)c1ccccc1NCCO)NNC(=O)c1cccs1 | -2.4%
69 | NC(=O)c1ccc(-n2nnnc2SCc2ccc(F)cc2)cc1 | -1.02%
70 | Cc1cc(=O)[nH]c(SCC(=O)Nc2cccc3ccccc23)c1C#N | -4.29%
71 | CC1(c2ccccc2)NC(=O)N(CC(=O)N2CCN(S(=O)(=O)c3cccs3)CC2)C1=O (stereo not shown) | 9.74%
72 | COc1cccc(/C(C)=N/Nc2ccc(S(=O)(=O)N3CCCCC3)cn2)c1 | 4.59%
73 | O=[N+]([O-])c1ccccc1OC/C(=N\O)c1ccccc1 | 7.38%
74 | COc1ccc(C2C3=C(CCCC3=O)N(CC(=O)O)C3=C2C(=O)CCC3)cc1 | 18.1%
75 | CS(=O)(=O)O.Cn1cc(C(F)(F)F)nc1-c1ccc(OCC(O)CNCCOc2ccc(O)c(C(N)=O)c2)cc1 (stereo not shown) | -1.51%
76 | CCc1nn(CC(=O)N2CCC(C(N)=O)CC2)c(=O)c2cc3occc3n12 | 4.89%
77 | COc1ccc([C@H]2CC(=O)C=C(c3ccccc3Oc3ccccc3)C2)cc1 | 12%
78 | O=C(CSc1nnnn1-c1cccc(C(=O)O)c1)NC(c1ccccc1)c1ccccc1 | 15.2%
79 | Cc1noc(COc2ccccc2OCC(N)=O)n1 | 12.9%
80 | C=CCNc1nc(Nc2ccc([N+](=O)[O-])cc2)nc(OC)n1 | 6.06%
81 | Cc1cc(C)n(-c2nc3ccccc3c(=O)n2OC2CCCCC2)n1 | 15.1%
82 | Cc1ccc(S(=O)(=O)N2CCN(C(=O)COC(=O)c3ccc(O)cc3)CC2)c(C)c1 | 5.11%
83 | COc1ccc(C(=O)NCCc2nnc3ccc(SCC(=O)NCCc4ccc(OC)c(OC)c4)nn23)cc1 | 9.45%
84 | Cc1cccc(CC(=O)NC2CCN(C)CC2)c1 | 16.4%
85 | Cc1nn(-c2ccc(C(=O)O)cc2)c(C)c1Oc1ccccc1O.O=S(=O)(O)O | 8.88%
86 | CCOC(=O)c1[nH]c2ccc(OC)cc2c1NC(=O)CCN1CCN(Cc2ccccc2)CC1 | -36%
87 | COc1ccc(CCN(C)Cc2c(O)ccc3ccccc23)cc1OC | -11.3%
88 | Cc1c(CCC(=O)NCCCCCC(=O)O)c(=O)oc2cc3occ(-c4ccccc4)c3cc12 | 15.3%
